From a collection of fitness landscapes (doi:10.1016/j.celrep.2020.107928)
The full ranking holds about 81,000 sequences; the median of “one-hybrid fitness for binding NBS DNA” is about -0.1, and the highest 2% start at about 0.36. This is one part of the list.

B1: Caulobacter ParB omega fusion; a variant is named by its letters at X, in order, B8GW30 (parent)
chain: MESVVVGEPGMSEGRRGLGRGLSALLGEVDAAPAQAPGEQLGGSREAPIEILQRNPDQPRRTFREEDLEDLSNSIREKGVLQPILVRPSPDTAGEYQIVAGERAWRAAQRAGLKTVPIMVRELDDLAVLEIGIIENVQRADLNVLEEALSYKVLMEKFERTQENIAQTIGKSXSHVANXMRLLXLPDEVQSYLVSGELTAXHARAIAAAADPVALAKQIIEGGLSVRETEALARKAPNLSAGKSKGGRPPRVKDTDTQALESDLSSVLGLDVSIDHRGSTGTLTITYATLEQLDDLCNRLTRGI

Variants of: B1
Assay: one-hybrid fitness for binding NBS DNA (the Noc-binding site; scaled: cognate 1, non-cognate 0); higher = stronger binding
Settings: with NBS DNA site
Summary of the method: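 The reporter was HIS3, with the binding site 19 bp from the promoter, in E. coli USO used for bacterial one-hybrid selection of Caulobacter ParB libraries with four specificity codons randomised. Growth was on M9 lacking histidine, with 0.1 mM IPTG and 5 mM 3-AT, for 48 hours at 37°C. Illumina sequencing covered plasmids before and after selection; three replicate libraries were pooled and variants with under 10 reads dropped. A fitness score is the log change in variant-to-wild-type read ratio, rescaled to the cognate and non-cognate references.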

Point of comparison: QHLR, “one-hybrid fitness for binding NBS DNA” value 0.445. Against it:
- NHRS — lower, ≤ 0.2
- TDVS — lower, ≤ 0.2
- RSYG — lower, ≤ 0.2
- KYVS — lower, ≤ 0.2
- GTMR — lower, ≤ 0.2
- PSQG — lower, ≤ 0.2
- THRC — lower, ≤ 0.2
- LTKT — lower, ≤ 0.2
- PSPW — lower, ≤ 0.2
- GFRV — lower, ≤ 0.2
- QKHR — higher, 0.661
- MARS — lower, ≤ 0.2
- QIVC — lower, ≤ 0.2
- DRQS — lower, ≤ 0.2
- SESN — lower, ≤ 0.2
- STNM — lower, ≤ 0.2
- KFSM — lower, ≤ 0.2
- SEHA — lower, ≤ 0.2
- PSVC — lower, ≤ 0.2
- VGHG — lower, ≤ 0.2
- FLIS — lower, ≤ 0.2
- SCAS — lower, ≤ 0.2
- VQEP — lower, ≤ 0.2
- QHGQ — lower, ≤ 0.2
- KYST — lower, ≤ 0.2
- HSTT — lower, ≤ 0.2
- AVWR — lower, ≤ 0.2
- FKRL — lower, ≤ 0.2
- QWVM — lower, ≤ 0.2
- EHDV — lower, ≤ 0.2
- IVNG — lower, ≤ 0.2
- CIVL — lower, ≤ 0.2
- VAPS — lower, ≤ 0.2
- HFRT — lower, ≤ 0.2
- RGMV — lower, ≤ 0.2
- EFPF — lower, ≤ 0.2
- YQPD — lower, ≤ 0.2
- MMIS — lower, ≤ 0.2
- ELCL — lower, ≤ 0.2
- IDHN — lower, ≤ 0.2
- YPSY — lower, ≤ 0.2
- QQEM — lower, ≤ 0.2
- FQYS — lower, ≤ 0.2
- RNVQ — lower, ≤ 0.2
- DYNT — lower, ≤ 0.2
- LHTC — lower, ≤ 0.2
- WAWL — lower, ≤ 0.2
- NRMA — lower, ≤ 0.2
- ICTE — lower, ≤ 0.2
- QRHA — higher, 0.629
- RMIC — lower, ≤ 0.2
- SWKL — lower, ≤ 0.2
- TPNE — lower, ≤ 0.2
- SMAA — lower, ≤ 0.2
- VADE — lower, ≤ 0.2
- QDVE — lower, ≤ 0.2
- HRPD — lower, ≤ 0.2
- EPTE — lower, ≤ 0.2
- HCVR — lower, ≤ 0.2
- VWVS — lower, ≤ 0.2
- VACT — lower, ≤ 0.2
- HNHV — lower, ≤ 0.2
- TYYH — lower, ≤ 0.2
- QDYS — lower, ≤ 0.2
- SGAK — lower, ≤ 0.2
- QLKD — lower, ≤ 0.2
- VRAD — lower, ≤ 0.2
- VNRS — lower, ≤ 0.2
- WREW — lower, ≤ 0.2
- RYQP — lower, ≤ 0.2
- LEFS — lower, ≤ 0.2
- SRIH — lower, ≤ 0.2
- LFDE — lower, ≤ 0.2
- PNTP — lower, ≤ 0.2
- PGRW — lower, ≤ 0.2
- ETTA — lower, ≤ 0.2
- CSKH — lower, ≤ 0.2
- RCVT — lower, 0.319
- RGYY — lower, ≤ 0.2
- GNFG — lower, ≤ 0.2
- AEFG — lower, ≤ 0.2
- MQSV — lower, ≤ 0.2
- QHRE — lower, 0.202
- EWST — lower, ≤ 0.2
- LSHS — lower, ≤ 0.2
- PQVG — lower, ≤ 0.2
- LRYM — lower, ≤ 0.2
- DTDW — lower, ≤ 0.2
- SAVG — lower, ≤ 0.2
- PSLE — lower, ≤ 0.2
- QTAW — lower, ≤ 0.2
- TDYT — lower, ≤ 0.2
- MITC — lower, ≤ 0.2
- GHTA — lower, ≤ 0.2
- NRIT — lower, ≤ 0.2
- QDQS — lower, ≤ 0.2
- QMRV — higher, 0.45
- PTKV — lower, ≤ 0.2
- KCFF — lower, ≤ 0.2
- KTHG — lower, ≤ 0.2
- NVKC — lower, ≤ 0.2
- EWKD — lower, ≤ 0.2
- HALA — lower, ≤ 0.2
- NGDG — lower, ≤ 0.2
- QMKA — higher, 0.596
- PADW — lower, ≤ 0.2
- TQMT — lower, ≤ 0.2
- STGQ — lower, ≤ 0.2
- YCRC — lower, ≤ 0.2
- CGVT — lower, ≤ 0.2
- HTHG — lower, ≤ 0.2
- TYFP — lower, ≤ 0.2
- SKGV — lower, ≤ 0.2
- HRKA — lower, ≤ 0.2
- QYDH — lower, ≤ 0.2
- SCIG — lower, ≤ 0.2
- LHKT — lower, ≤ 0.2
- QQRL — lower, 0.329
- TSAC — lower, ≤ 0.2
- TTSG — lower, ≤ 0.2
- SIGI — lower, ≤ 0.2
- AIKK — lower, ≤ 0.2
- PYRD — lower, ≤ 0.2
- KRFW — lower, ≤ 0.2
- YVNI — lower, ≤ 0.2
- YTPM — lower, ≤ 0.2
- KKRF — lower, ≤ 0.2
- MIRN — lower, ≤ 0.2
- TKYS — lower, ≤ 0.2
- HNPL — lower, ≤ 0.2
- ESDI — lower, ≤ 0.2
- APTS — lower, ≤ 0.2
- PPGM — lower, ≤ 0.2
- RIVE — lower, ≤ 0.2
- TIKF — lower, ≤ 0.2
- SYCE — lower, ≤ 0.2
- DQRC — lower, ≤ 0.2
- LELA — lower, ≤ 0.2
- QLVT — lower, 0.276
- EGGH — lower, ≤ 0.2
- PQQR — lower, ≤ 0.2
- RWCF — lower, ≤ 0.2
- PSPS — lower, ≤ 0.2
- NRTD — lower, ≤ 0.2
- HVNV — lower, ≤ 0.2
- HCEV — lower, ≤ 0.2
- YQPR — lower, ≤ 0.2
- YSAR — lower, ≤ 0.2
- MGER — lower, ≤ 0.2
- CFHL — lower, ≤ 0.2
- LGKA — lower, ≤ 0.2
- SHSY — lower, ≤ 0.2
- DTQS — lower, ≤ 0.2
- PAIL — lower, ≤ 0.2
- YSYR — lower, ≤ 0.2
- LHDT — lower, ≤ 0.2
- PAGL — lower, ≤ 0.2
- LVWA — lower, ≤ 0.2
- HTMS — lower, ≤ 0.2
- RNYG — lower, ≤ 0.2
- NHSW — lower, ≤ 0.2
- GLKN — lower, ≤ 0.2
- QATN — lower, ≤ 0.2
- HPIY — lower, ≤ 0.2
- ECHA — lower, ≤ 0.2
- EFKR — lower, 0.253
- CEVL — lower, ≤ 0.2
- VTRM — lower, ≤ 0.2
- QPNI — lower, ≤ 0.2
- SGLV — lower, ≤ 0.2
- RATI — lower, ≤ 0.2
- QRGW — lower, 0.297
- QSPM — lower, ≤ 0.2
- WYHS — lower, ≤ 0.2
- EWYS — lower, ≤ 0.2
- EMKR — lower, 0.241
- DRVK — lower, ≤ 0.2
- TRGK — lower, ≤ 0.2
- TVNI — lower, ≤ 0.2
- IFLD — lower, ≤ 0.2
- LVTH — lower, ≤ 0.2
- DGFR — lower, ≤ 0.2
- NEGR — lower, ≤ 0.2
- APNF — lower, ≤ 0.2
- RNLM — lower, ≤ 0.2
- ADLN — lower, ≤ 0.2
- WNPS — lower, ≤ 0.2
- TYND — lower, ≤ 0.2
- IAEL — lower, ≤ 0.2
- LNKS — lower, ≤ 0.2
- NLYI — lower, ≤ 0.2
- CSIS — lower, ≤ 0.2
- PADA — lower, ≤ 0.2
- KWFG — lower, ≤ 0.2
